Measurements reported in PMC4336329 (PLoS ONE, 2015).
Screen size: about 310,000 compounds; about 2,200 (0.71%) showed an effect of 50% or more. Effects have a minus sign here. Some of the results follow.

Target: human ether-à-go-go-related gene (hERG) potassium channel (human, UniProt Q12809)
Assay: primary screen, population patch clamp on CHO cells stably expressing hERG

human ether-à-go-go-related gene (hERG) potassium channel, sequence (Q12809 whole entry, looked up): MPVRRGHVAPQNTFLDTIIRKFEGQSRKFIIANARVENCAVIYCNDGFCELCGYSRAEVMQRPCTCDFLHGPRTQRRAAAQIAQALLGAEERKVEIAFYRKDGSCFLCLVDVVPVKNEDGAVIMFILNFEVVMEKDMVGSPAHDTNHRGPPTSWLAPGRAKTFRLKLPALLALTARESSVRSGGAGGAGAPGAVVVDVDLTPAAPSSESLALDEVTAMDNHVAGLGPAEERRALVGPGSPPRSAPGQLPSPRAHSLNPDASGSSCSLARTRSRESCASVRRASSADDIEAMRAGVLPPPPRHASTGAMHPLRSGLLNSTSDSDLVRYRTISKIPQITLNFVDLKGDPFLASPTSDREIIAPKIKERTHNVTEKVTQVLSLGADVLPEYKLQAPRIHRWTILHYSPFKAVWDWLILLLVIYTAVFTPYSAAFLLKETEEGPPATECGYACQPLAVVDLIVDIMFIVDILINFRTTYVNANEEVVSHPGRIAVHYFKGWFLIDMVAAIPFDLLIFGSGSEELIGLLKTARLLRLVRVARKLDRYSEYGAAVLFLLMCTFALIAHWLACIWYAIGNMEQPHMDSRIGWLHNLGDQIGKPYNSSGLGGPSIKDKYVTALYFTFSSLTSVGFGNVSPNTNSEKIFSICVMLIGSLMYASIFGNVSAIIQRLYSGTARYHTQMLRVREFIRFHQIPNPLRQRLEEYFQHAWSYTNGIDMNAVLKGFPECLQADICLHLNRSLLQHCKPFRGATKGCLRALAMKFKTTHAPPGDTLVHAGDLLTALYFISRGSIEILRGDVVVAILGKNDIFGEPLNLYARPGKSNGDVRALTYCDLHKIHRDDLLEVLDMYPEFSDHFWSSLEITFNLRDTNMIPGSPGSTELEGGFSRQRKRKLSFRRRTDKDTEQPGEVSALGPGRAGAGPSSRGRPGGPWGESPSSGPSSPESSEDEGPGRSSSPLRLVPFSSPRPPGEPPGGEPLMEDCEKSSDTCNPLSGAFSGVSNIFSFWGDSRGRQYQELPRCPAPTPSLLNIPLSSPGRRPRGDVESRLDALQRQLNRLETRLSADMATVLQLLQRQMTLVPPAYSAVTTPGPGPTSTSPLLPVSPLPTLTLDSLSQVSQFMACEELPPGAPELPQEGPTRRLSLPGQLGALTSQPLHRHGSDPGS

Structure (SMILES)	hERG current change (%, negative = inhibition) at 1uM
CCN(CC)S(=O)(=O)c1ccc(C(C)NC(=O)C2CCCN2C(=O)c2cccs2)cc1 (stereo not shown)	-2.55%
COC/C=C/C1=CC2=CC(=O)C(C)(OC(=O)C3CCCC3)C(=O)C2=CO1 (stereo not shown)	7.45%
CCN(C(=O)c1ccco1)C1C2CC3CC(C2)CC1C3 (stereo not shown)	13.1%
CN(C)S(=O)(=O)c1cccc(C(=O)NCC(C)(C)CNC(=O)c2cccc(S(=O)(=O)N(C)C)c2)c1	13.9%
O=C(NCCc1ccccc1)c1ccc(NS(=O)(=O)c2ccc3[nH]c(=O)[nH]c3c2)cc1	17%
CCOCCCNC(=O)C1CCCN1S(=O)(=O)c1ccc(Cl)cc1 (stereo not shown)	10.6%
COc1ccccc1NC(=O)c1ccc(S(=O)(=O)N2CCC(C)CC2)cc1	6.54%
CCCCNC(=S)N/N=C/c1ccc(OCC(=O)Nc2c(C)cc(C)cc2C)c(OC)c1	6.64%
Cc1ccc(Nc2nc(C)cc(C)c2C(N)=O)cc1	12.1%
COc1ccccc1NC(=O)CSc1nnc(COc2ccccc2C)o1	9.55%
Cc1ccc2nc3c(c(N)c2c1)CCN3C.O=C(O)C(=O)O	-0.993%
Cc1ccc(S(=O)(=O)N2CCN(C(=O)N3CCOCC3)C2c2ccc(N(C)C)cc2)cc1 (stereo not shown)	-5.9%
O=C(Nc1ccc(F)cc1)NC1(C(=O)NCc2ccco2)CCCCC1	19.5%
CC1CCN(C(=O)CN(c2ccc3c(c2)OCCO3)S(=O)(=O)c2ccccc2)CC1	0.358%
Cc1oc(S(=O)(=O)N(C)C)cc1C(=O)Nc1ccc(F)cc1	9.97%
CC(C)(C)c1ccc(C(=O)/C=C2\NC(=O)CS2)cc1	1.5%
CCC(C)(C)NC(=O)C(c1ccc(C)cc1)N(Cc1ccco1)C(=O)CCC(=O)Nc1nccs1 (stereo not shown)	11.8%
CCCCn1c(N)c(N(CCOC)C(=O)c2cc(C)oc2C)c(=O)[nH]c1=O	-1.55%
COc1ccc(S(=O)(=O)NC2CC3CCC2C3)cc1Br (stereo not shown)	6%
COc1cc(/C=C2\CC/C(=C\c3ccc(OCCO)c(OC)c3)C2=O)ccc1OCCO	17.2%

Structure (SMILES)	hERG current change (%, negative = inhibition) at 1uM
CCOc1ccc(-c2n[nH]c(=S)c3ccccc23)cc1	11.3%
O=C(Nc1nnc(Cc2ccc(F)cc2)s1)Nc1ccccc1F	14.7%
COc1cc(CN2CCC(n3nccc3NC(=O)C3CC3)CC2)cc(OC)c1	-29.5%
CC(Sc1nc2nn(-c3ccccc3)c(=O)c-2c2n1CCCCC2)C(N)=O (stereo not shown)	1.34%
COC(=O)C1=C(c2ccc(Cl)c(C(F)(F)F)c2)C[C@@H]2CC[C@H]1N2C	7.73%
CC1CCCCC1NC(=O)C1CCN(c2c3c(nc4ncnn24)CCC3)CC1 (stereo not shown)	9.65%
C/C(=N\Nc1nc(N)cc(Cl)n1)c1cccc(N)c1	-6.08%
CCn1cnc2c(Nc3cc(F)cc(F)c3)nc(C#N)nc21	19.4%
C=CCc1ccccc1OCC(O)CNC1CCCC1.Cl (stereo not shown)	15.5%
O=C1c2ccccc2S(=O)(=O)N1CCOc1ccccc1	10.7%
Cc1ccsc1/C=N/NC(=O)c1c[nH]c2ccccc12	12%
CCn1c(SCC(=O)N(Cc2ccccc2)C2CCS(=O)(=O)C2)nc2ccccc2c1=O (stereo not shown)	-12.2%
O=C(/C=C\c1ccccc1)NCC(=O)N/N=C/c1ccc(O)cc1O	4.12%
COc1cccc(NC(=O)CSc2ccc3nnc(CCNC(=O)c4ccccc4)n3n2)c1	19.1%
Cc1ccc(C(=O)COC(=O)CNC(=O)CNC(=O)c2ccc(C)cc2)cc1	-0.593%
CN(C)CCNC(=O)NC(=O)c1ccc(Cl)cc1	3.99%
CC(=O)NC(c1ccc(C(C)C)cc1)c1ccc2cccnc2c1O (stereo not shown)	16.1%
Cc1ccc(S(=O)(=O)NC(Cc2cnc[nH]2)C(=O)O)cc1 (stereo not shown)	10.4%
O=C(O)c1ccc2ccc3ccccc3c2c1	4.22%
CSc1ccccc1NC(=O)c1cc(C)on1	11%

Structure (SMILES)	hERG current change (%, negative = inhibition) at 1uM
CCC(=O)Nc1cccc(-c2nc3ncccc3o2)c1C	12.3%
O=C(NCc1ccc2c(c1)OCO2)c1ccc(Cl)s1	8.13%
CC(=O)Nc1ccc(C(=O)NNC(=O)c2ccc(Cl)cc2)cc1	9.32%
CCc1nnc(NS(=O)(=O)c2ccc(NC(=O)COc3ccc(Cl)c(C)c3)cc2)s1	13.5%
Nn1c(COc2ccccc2F)nnc1SCC(=O)NC1CCCC1	9.93%
Cc1ccc(NC(=O)C2CC(=O)n3ncnc3N2)cc1C (stereo not shown)	6.92%
CN(C)C(=O)c1sccc1Oc1ccc(F)cc1[N+](=O)[O-]	11.7%
O=C(CN1C(=O)c2ccccc2S1(=O)=O)Nc1ccon1	14.3%
Cc1ccc(CN2CCN(/N=C/C=C/c3ccccc3[N+](=O)[O-])CC2)cc1	0.197%
CS(=O)(=O)NCCn1ccc2ccccc21	3.22%
Cc1nnc(NC(=O)Oc2ccccc2)s1	8%
CCCNC(=S)NCCN1CCCCC1.O=C(O)C(=O)O	8.51%
O=C1/C(=C2/NCCN2C2CC(=O)N(c3ccccc3)C2=O)CC/C1=C\c1ccccc1 (stereo not shown)	-2.16%
COc1ccccc1NCC(=O)n1nc(C)cc1C	15.5%
COc1ccc(CC(=O)Nc2ccc(-c3cn4ccccc4n3)cc2)cc1OC	16.4%
Cc1cccc(C)c1NC(=O)CNC(=O)c1c(C)nn(-c2ccccc2)c1C	0.617%
CCNC(=S)N1CCC(NC(=O)C2CCCCC2)CC1	9.82%
COc1ccc(C(=O)C2CCCN(Cc3cccc(C)n3)C2)c(OC)c1 (stereo not shown)	-58.3%
